Results published in paper PMC4336329 (PLoS ONE, 2015).
In all, about 310,000 compounds went through this assay and about 14,000 (4.5%) showed an effect of 50% or more. Effects have a minus sign here. This is one part of the list.

These molecules were tested against human ether-à-go-go-related gene (hERG) potassium channel (human, UniProt Q12809) (assay: primary screen, population patch clamp on CHO cells stably expressing hERG).
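Note: peak tail current of the secondary pulse compared with the same well before compound.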

human ether-à-go-go-related gene (hERG) potassium channel, sequence (Q12809 whole entry, looked up): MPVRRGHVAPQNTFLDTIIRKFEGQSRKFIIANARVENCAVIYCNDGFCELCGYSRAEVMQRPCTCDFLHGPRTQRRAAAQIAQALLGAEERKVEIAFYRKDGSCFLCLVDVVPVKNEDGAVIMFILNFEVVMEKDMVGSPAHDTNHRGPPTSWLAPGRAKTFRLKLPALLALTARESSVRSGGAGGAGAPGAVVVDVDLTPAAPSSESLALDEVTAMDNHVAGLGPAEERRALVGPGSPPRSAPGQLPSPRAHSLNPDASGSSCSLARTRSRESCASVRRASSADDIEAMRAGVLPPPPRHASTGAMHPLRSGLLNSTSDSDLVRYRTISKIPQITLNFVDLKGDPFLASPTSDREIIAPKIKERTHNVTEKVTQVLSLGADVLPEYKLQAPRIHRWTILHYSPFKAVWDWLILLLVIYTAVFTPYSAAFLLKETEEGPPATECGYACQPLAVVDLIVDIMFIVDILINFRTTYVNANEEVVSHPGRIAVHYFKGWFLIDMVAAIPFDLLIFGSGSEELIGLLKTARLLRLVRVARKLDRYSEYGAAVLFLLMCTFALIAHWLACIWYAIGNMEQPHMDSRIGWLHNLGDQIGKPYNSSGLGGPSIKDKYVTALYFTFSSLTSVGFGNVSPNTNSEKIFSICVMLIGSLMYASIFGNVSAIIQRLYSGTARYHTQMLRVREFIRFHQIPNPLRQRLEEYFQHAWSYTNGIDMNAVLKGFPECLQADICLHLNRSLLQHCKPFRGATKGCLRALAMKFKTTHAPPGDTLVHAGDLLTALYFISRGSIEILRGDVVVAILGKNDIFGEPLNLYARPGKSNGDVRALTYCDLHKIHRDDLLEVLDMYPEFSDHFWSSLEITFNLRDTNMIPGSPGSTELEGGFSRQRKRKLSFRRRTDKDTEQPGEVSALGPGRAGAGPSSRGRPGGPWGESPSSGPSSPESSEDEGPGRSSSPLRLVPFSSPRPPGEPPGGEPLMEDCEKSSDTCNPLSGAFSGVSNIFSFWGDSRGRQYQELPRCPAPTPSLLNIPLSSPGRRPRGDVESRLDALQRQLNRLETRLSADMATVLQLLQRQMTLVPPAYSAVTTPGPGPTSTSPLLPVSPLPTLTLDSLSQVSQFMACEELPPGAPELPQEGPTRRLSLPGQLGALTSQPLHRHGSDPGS

SMILES | hERG current change (%, negative = inhibition) at 10uM
CSc1cc(-c2ccccc2)n(C)c(=O)c1C#N | 17.9%
COc1ccc(S(=O)(=O)N2CCSCC2)cc1 | 3.45%
COc1ccc(CNC(=S)Nc2ccc(S(N)(=O)=O)cc2)cc1 | 22.1%
CN(C)c1ccc(/C=N/N(Cc2ccccc2)c2ccccc2)cc1 | 3.54%
CCOC(=O)N1CCN(C(=O)CSc2nnc(-c3ccc(C(C)(C)C)cc3)o2)CC1 | 11.1%
CS(=O)(=O)N(CC(=O)N1CCc2ccccc2C1)c1ccccc1Br | 10.4%
CC(CCc1ccccc1)NC(=O)COC(=O)C1=COCCO1 (stereo not shown) | 8.06%
COc1cc2ccccc2cc1C(=O)Nc1ccc(N2CCOCC2)cc1 | 15.1%
Cc1nc(/N=C(\N)N(C)C)[nH]c(=O)c1C | 13.8%
COc1ccccc1CN(C)C(=O)CN1CCN(CC(=O)Nc2ccccc2Cl)CC1 | -28.7%
CCN(Cc1ccncc1)C(=O)c1cc(COc2c(C)cccc2C)on1 | -75.3%
CC(=O)Nc1cccc(NC(=O)C(F)(F)F)c1 | 21.2%
Cn1ncc(Cl)c1C(=O)N1CCN(c2ccc(Cl)c(Cl)c2)CC1 | -41.5%
O=C1c2ccccc2C(=O)N1CSc1nnc(Nc2ccccc2)s1 | 18.9%
CCN(CC)CCC(c1ccc(N(C)C)cc1)c1c(OC)cc(OC)c2ccc(=O)oc12 (stereo not shown) | -11.7%
CC1(C)Oc2ccc3ccc(=O)oc3c2-c2cn[nH]c21 | 11.6%
CN(C)CCn1c2ccccc2c2nc3ccc([N+](=O)[O-])cc3cc21 | 5.71%
COc1ccc(C)cc1S(=O)(=O)N1CCc2ccccc2C1 | -10.1%
O=S(=O)(c1ccc(N2CCOCC2)cc1)N1CCOCC1 | -5.96%
CCOc1ccc(C(=O)Nc2ccc(N3CCCC3)cc2)cc1 | 3.89%

SMILES | hERG current change (%, negative = inhibition) at 10uM
CC(C)N(C(=O)NC(=O)Nc1ccc(S(=O)(=O)N2CCCC2)cc1)S(C)(=O)=O | 13.9%
O=S(=O)(c1ccc(F)c(F)c1)N1CCN(Cc2ccc3c(c2)OCO3)CC1 | -51.4%
O=C(Cc1cccs1)NCCc1ccc(Cl)cc1 | -37.2%
Cc1cc(Oc2ccccc2)nc(SCC(N)=O)n1 | -1.34%
COc1cc(/C=C2\CCCc3c2nc2ccccc2c3C(=O)O)cc([N+](=O)[O-])c1O | 10.3%
CC1CCN(C(=O)c2[nH]cnc2C(=O)NCc2ccccc2)CC1 | 8.61%
COc1cccc(C(=O)Nc2ccc(NC(=O)C3CC3)nc2)c1 | 12.8%
COc1ccccc1CCNC(=O)CSc1nc(=O)[nH]c2c1CCC2 | -40.8%
O=C(CSCc1ccccc1)Nc1ccc(F)c(F)c1 | -3.2%
N#Cc1c(-c2ccccc2)nc(SCC(=O)Nc2ccccc2F)[nH]c1=O | 19.7%
CC(=O)NC(CC(=O)O)C(=O)O (stereo not shown) | 20.5%
COc1cc(C(=S)N2CCOCC2)cc(OC)c1OS(=O)(=O)c1ccc(C)cc1 | 4.13%
CCc1nnc(NC(=O)[C@@H](NC(=O)c2cccc(C)c2)C(C)C)s1 | 5.47%
N#CC1(NC(=O)Cn2cc(C(F)(F)F)ccc2=O)CCCC1 | -37.2%
CC(=O)OC(C(=O)NCc1ccco1)c1ccncc1 (stereo not shown) | 12.5%
CC(C)c1ccc(NC(=O)CCNS(=O)(=O)c2cccc3nonc23)cc1 | -8.88%
CCn1c(N)[n+](CC(=O)Nc2ccc(SC(F)F)cc2)c2ccccc21.[Cl-] | -78.4%
O=C(NCc1ccco1)c1cnn2c1NC(c1ccc(Br)cc1)CC2C(F)(F)F (stereo not shown) | 0.369%
CCC(=O)Nc1ccc2c(c1)ncn2-c1ccc(OC)cc1 | -9.24%
CCC(CC)NCCOC(=O)c1ccc([N+](=O)[O-])cc1 | -44%

SMILES | hERG current change (%, negative = inhibition) at 10uM
Cc1onc(C(=O)Nc2sc3c(c2C#N)CCCC3)c1[N+](=O)[O-] | 19.2%
COc1ccc(/C=C/c2ccncc2)cc1OC | -5.59%
CCOc1cccc(-c2c(C(=O)N/N=C/c3ccc(C)s3)nnn2-c2nonc2N)c1 | 25.1%
CCn1nnnc1-c1ccc(OC)c(S(=O)(=O)NCc2ccccc2)c1 | -4.08%
CSCCC1NC(=O)N(CC(=O)Nc2ccc(-c3ccccc3)cc2)C1=O (stereo not shown) | 2.38%
Nc1ccc2nc3c(c(Cl)c2c1)CCCC3 | -22.7%
O=C(CSCCO)Nc1ccc([N+](=O)[O-])cc1 | 7.88%
COc1ccc(-c2cc(C(F)(F)F)n3nc(C(=O)NCc4ccco4)c(Cl)c3n2)cc1 | 11.9%
Cn1c(=O)c2ncn(CC(=O)O)c2n(C)c1=O | 19.3%
CCCCn1c(N)c(N(CC(C)C)C(=O)c2cccc(S(=O)(=O)N3CC(C)OC(C)C3)c2)c(=O)[nH]c1=O (stereo not shown) | 21.6%
Cc1ccc(CN2CCC(n3nccc3NC(=O)CCOc3ccccc3)CC2)o1 | -20.7%
COc1ccc(CNCc2ccccc2C(F)(F)F)cc1.O=C(O)C(=O)O | -27.9%
CCC(C)NCCOCCOc1ccc(Cl)cc1Br.O=C(O)C(=O)O (stereo not shown) | -51.1%
CCOc1c(/C=C(\C#N)C(N)=O)c2ccccc2n1CC | -18.3%
COCc1cc(C)nc2sc(C(=O)Nc3ccc(OC)cc3)c(N)c12 | 12.5%
O=C1Nc2ccc(Br)cc2C1=Nc1cccnc1 | 2.71%
CCn1cc(C(=O)NCCN(CC(C)C)CC(C)C)c(=O)c2cc(S(=O)(=O)N3CCOCC3)ccc21 | -14.1%
CCCCCCCC(=O)N/N=C(\C)c1cccnc1 | -21.9%
